Measured values as given in the supplement of paper PMC11417369.
± gives the standard deviation of the averaged measurements. Some of the results follow.

Test system: PfAP2-G AP2 domain (GST-tagged)
Test: gcPBM binding intensity (ln(normalized median fluorescence intensity)); higher = stronger DNA binding
Method in brief: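 Binding intensity values are the highest Masliner-normalised natural-log median intensity among replicate spots of either probe orientation. The binding step lasted 1 h in 1× PBS with 1% milk, 0.2 mg/ml BSA, 0.5% salmon testes DNA and 0.03% Triton X-100, using GST-tagged P. falciparum DNA-binding domains expressed in E. coli on an Agilent 4 × 180k array of primer-extended double-stranded 36-bp intergenic genomic probes plus negative controls. Alexa488 anti-GST antibody and a 488 nm scan detected bound protein.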

Point of comparison: “CTATAAAAATATAATTGTACAAATTTTTATATCTTA [XGTACX_site7722]”, “gcPBM binding intensity (ln)” value 10.8 ± 0.43. Against it:
- ATTCATATATACTTCACACACATTTTATCATTCAAA [CACACA_site2468] — within error, 10.3 ± 0.14
- TTTCTATTTATTTCAAGTACTAAAAATATATATAAC [XGTACX_site8203] — within error, 11 ± 0.79
- TTTATCCAATAATCTGGTACACAATAATCATTCATG [XGTACX_site6192] — within error, 11 ± 0.5
- GAAATTATGTAAAAAAGTACTAACATACATATATAT [XGTACX_site1794] — within error, 11.2 ± 0.77
- GAAAACGTCTTTAATAGTACACAGTTAAAAAATACA [XGTACX_site8976] — within error, 11.1 ± 0.75
- AAAAAAAAAAAAAACATACACACATTGAACTTTTAT [CACACA_site3251] — lower, 10.04 ± 0.049
- ACAAAATTTACAAAATGTACAAAATTTACAAAATAT [XGTACX_site3542] — the same, 10.8 ± 0.49
- TTTTTTCATTATATATAGTATGCAAGTCAAATTAAT [GTGCAC_negctrl_site207] — lower, 9.94 ± 0.22
- TTTTTTTTTTTGATGGTGCAATATATTAAATAGAAA — within error, 10.1 ± 0.47
- TATATATATATATAAAGTACATATAATATATATTTG [XGTACX_site5412] — within error, 11.1 ± 0.71
- ATAATGTTTTATAATACACACATTAGATATATAAAT [CACACA_site7834] — lower, 9.975 ± 0.049
- TTAAAATAGATAAATAGTACTCTTTCCATTATGTAA [XGTACX_site6299] — within error, 11.1 ± 0.42
- TATATAATAAGATATGCATGCACATGTAAAATGAAT [TGCATGCA_site499] — lower, 9.84 ± 0.21
- ATATGTATAATATATATATATATATATATATATATA [CACACA_negctrl_site623] — lower, 9.74 ± 0.4
- TCATATAACACTTGATGTACAAGAATCCAAGTTGCA [XGTACX_site8758] — within error, 10.9 ± 0.69
- TAAATACTTTTATGTACACACATATAGATATATATT [CACACA_site5416] — within error, 11.5 ± 0.81
- TCAAAAACGAGACATGCATGCAATTCATTTTGATTC [TGCATGCA_site212] — lower, 9.64 ± 0.12
- CCATTCTTACTTTATTGTACTTGAAAATTTTTTTTA [XGTACX_site6160] — within error, 11.3 ± 0.67
- GTGATAAATATTATATGTACATATAATATTTATGTC [XGTACX_site8023] — within error, 11.4 ± 0.88
- TTGAACCTGATAAATACACACAATATATATTTTTTT [CACACA_site2173] — lower, 9.8 ± 0.071
- CACAAAAATAGACACACACACATATAGATTTATTAT [CACACA_site7676] — lower, 9.97 ± 0.11
- TTATGGTTTAAATAAAGTACAAATAAATAAATATAT [XGTACX_site5777] — within error, 11.2 ± 0.76
- ATACACATATGTTAATGTACACATATATAATATTTA [XGTACX_site163] — within error, 11.3 ± 0.78
- AATACAAATATATACACACATACATACATACATATA [CACACA_site3147] — lower, 9.965 ± 0.035
- ATATATATATGTTACTGTACTAATTTATATGTTAAT [XGTACX_site3341] — within error, 11.4 ± 0.95
- TAGTTTTCTTAAAGATGTACATTTTAAAAATAATCT [XGTACX_site255] — within error, 11.2 ± 0.63
- TAGATATATAATTTGCGTACACAAATAATATATTTT [XGTACX_site6397] — within error, 11.4 ± 0.97
- AGGTTACATAGATTTTGTACATATATATTATTTTTT [XGTACX_site3040] — within error, 10.7 ± 0.4
- AAAAAATTATAAAAGTGTACATATATATATATATAT [XGTACX_site154] — within error, 11.3 ± 0.8
- TTATGAAAAATAAAATTAGAAAAAAAGGAAAATGAA [XGTACX_negctrl_site232] — lower, 9.915 ± 0.078
- TTTCTTAAATATATTGAGGAATAAAAAGAAGAAAAG [GTGCAC_negctrl_site281] — lower, 10 ± 0.3
- AAAAAAAAAAAAAACACACACAAATTTAATCTATAT [CACACA_site6894] — lower, 9.99 ± 0.23
- TGTTATTACTTTATATCATCTTAAAATAAGCATATT [CACACA_negctrl_site1501] — lower, 9.7 ± 0.15
- TGAAATAAATAATGCACACTCTACAGATATACGTAT [CACACA_site5270] — lower, 10.1 ± 0.11
- TTGAAAATACAAAATTGTACAAAGATTTAAATAAAA [XGTACX_site1182] — within error, 10.9 ± 0.35
- CATATTTCTTTATTGGCACACATTTTTTCAATTATA [CACACA_site1618] — within error, 10.5 ± 0.35
- TATATGAAAATGTTCATACACACATAAAAAAAAAAA [CACACA_site3237] — lower, 10.1 ± 0.26
- TATTTATTTATGTGTTGTACAAATAAATAGAGGTAT [XGTACX_site6408] — within error, 11.2 ± 0.71
- ATATATTAAAAACGATGTACCCTGAACTAAAAAAAA [XGTACX_site4986] — within error, 11.3 ± 0.66
- TTTATTTATTACAATTTTTGAATCACCACACAGTCG [GTGCAC_negctrl_site413] — within error, 10.3 ± 0.39
- ATCATGTTATATACATGTACATATATATATATATAT [XGTACX_site1329] — within error, 11.2 ± 0.82
- TATACCTATAGACACACACACATATAGATTTATATA [CACACA_site7124] — lower, 10.1 ± 0.11
- AATTTTTTATTAAACACACAAACATATATATATATA [CACACA_site1937] — lower, 9.95 ± 0.25
- CGCATACACAGACACACACACACATATAAATATGTA [CACACA_site6444] — within error, 10.2 ± 0.24
- AAATAAATATTTATATGTACATATATTTTATAATAC [XGTACX_site7041] — within error, 11.3 ± 0.73
- TAACATATTTTTAATACACACTCAAAAAAGTACTTA [CACACA_site5638] — within error, 11.4 ± 0.95
- TACAAATATATATGCACACACATATACATACATATA [CACACA_site2182] — lower, 10.1 ± 0.2
- TATTAGATATAATATATACACACCAACGAACGAAGA [CACACA_site1134] — within error, 10.3 ± 0.18
- GTTCATACTTAATATTGTACTTTTCATGTAGTGTAT [XGTACX_site6613] — within error, 11.3 ± 0.8
- TTATATAATTTAATAGTGCAATTATATTAATTTTTC — lower, 9.71 ± 0.042
- TTCATTCAAATTAACGTGCACATTATTAGTAAAAAC — within error, 10.3 ± 0.3
- CCAACAAAAATAAGCACACACAAATATACATACATA [CACACA_site3606] — within error, 10.2 ± 0.18
- CATGCAATATTAAACACACACTCATATAGCACAATA [CACACA_site6182] — lower, 9.96
- CAAAACCTACATAACATACACACGCATATATAGAAT [CACACA_site2846] — lower, 9.905 ± 0.007
- TTCTTATCAAGAGAAAGTACATAAAAAATTAATAAG [XGTACX_site1821] — within error, 11.3 ± 0.79
- AGAATAATAAAATGGGTGCAATAGTTTTTTTTTTTT [GTGCAC_site9823] — lower, 9.99 ± 0.042
- ACAGTATCTGGTAGCTGTACGGATTGTAGAGAGTAG [XGTACX_site4872] — within error, 11.4 ± 0.87
- TTTTAAAAAATATAATATAATATAATATAAAATAAA [CACACA_negctrl_site154] — lower, 9.405 ± 0.035
- TTGGATTTTCCATAATGTACACATAAAAGTGTTACA [XGTACX_site4544] — within error, 11.3 ± 0.89
- CGCGCACACGGACACACACACACACGGATATAAATA [CACACA_site7102] — within error, 11.4 ± 0.86
- TGTTGTTACATATATACACACATATATATATTATAT [CACACA_site2397] — lower, 10.1 ± 0.057
- ATATATATATATATATGTACATATTTTAATAATTAA [XGTACX_site8549] — within error, 11.2 ± 0.6
- TAATATAGTATAGTATGTACATATAATTAGAATATT [XGTACX_site4053] — within error, 11.3 ± 0.77
- TGGTATATATTTCCTTGTACATATAATATATATTGT [XGTACX_site3961] — within error, 11 ± 0.47
- AATTTGTTATGTATATGTACATAAATAGATATATGA [XGTACX_site3930] — within error, 11.2 ± 0.7
- AACCATATTTAGATTACACACAGTTTAAATATTTTA [CACACA_site6712] — lower, 9.9 ± 0.042
- AATATGAACAGACACACACACACAAAAAAAAAAAAA [CACACA_site2012] — within error, 10.1 ± 0.52
- TATTAAAGGGGTTTCACACACATGTATAATTAATTT [CACACA_site200] — lower, 9.915 ± 0.078
- TCCAGGTATTTATTCTGTACACATAAAACATTTTAT [XGTACX_site8472] — within error, 11.3 ± 0.83
- TCGTCTCTTCTTGTTCTGTTTTAGAAGGCTATATAT [CACACA_negctrl_site180] — lower, 10.1 ± 0.19
- AGGAGGTCAGTTCACAGTACCCAGAAAACTCTACGA [XGTACX_site1992] — within error, 11.1 ± 0.78
- TCTTGACGAAGTAGAAGGATATATATATAAAAAAAA [CACACA_negctrl_site641] — lower, 9.85
- AAAATCCAGTTTTCAAAATTGAACAAAAAAAAAATA [GTGCAC_negctrl_site542] — lower, 9.81 ± 0.014
- TATTTTTCTTTATTGGTACACACGAAAAAAAAATTG [CACACA_site3054] — within error, 11.3 ± 0.97
- TATTTAATATATTTATGTACATATTTATTTATTATT [XGTACX_site524] — within error, 11.4 ± 0.79
- AAGAAGCATAAATGTACACACATATTTATATATCAA [CACACA_site6743] — within error, 11.3 ± 0.91
- AAAATATATATGTATGTTTATATGTTTATATATATT [XGTACX_negctrl_site337] — lower, 9.54 ± 0.18
- AAAAAAAAATTTAAGTGTACATTCCATTTTAGTTTA [XGTACX_site5286] — within error, 11.2 ± 0.61
- TCTAAGTATAAAGACACACAGAATAAAAAAAAATAT [CACACA_site2367] — lower, 10.1 ± 0.19
- TTTATTTATATTTATACACACAAACATAATACTACT [CACACA_site7039] — within error, 10.3 ± 0.28
- AAAGGATATGGACACACACACACATATATATATATA [CACACA_site8686] — within error, 11 ± 0.64
- CAACACTTATTGAAACGTACGCATATAGTTTCTTTT [XGTACX_site8960] — within error, 11 ± 0.55
- ATATATTTTTTAAACACACACATAAATATTTGTGTA [CACACA_site2879] — lower, 9.925 ± 0.035
- AATAAAATAATAAAAGCACACAAGAATACAGACAAA [CACACA_site112] — lower, 10.09 ± 0.014
- ATGTAAAACATAAAATGTACATATTATACAAACTAT [XGTACX_site5797] — within error, 11.1 ± 0.56
- TAAGTATAAATATTTACACACATTTGTTTTTTTTTA [CACACA_site7731] — lower, 9.78 ± 0.13
- TAATATAATATATGCACACAAATATGTATATATGTG [CACACA_site2134] — within error, 10.3 ± 0.2
- GGATAATATATTAGAACACACATATATCTGTAAAAA [CACACA_site4266] — lower, 10.01 ± 0.028
